Results on 88 sequences are retold here after the supplement of paper PMC11417369.

± gives the standard deviation of the averaged measurements. Some of the results follow.

The experiment relates to PfAP2-G AP2 domain (GST-tagged). The experiment is described as follows: gcPBM binding intensity (ln(normalized median fluorescence intensity)); higher = stronger DNA binding. The method in brief:
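Each value is the highest Masliner-normalised natural-log median intensity across replicate spots of either orientation of a probe. The probes were primer-extended double-stranded 36-bp intergenic genomic sequences on an Agilent 4 × 180k array, alongside negative controls, exposed for 1 h to GST-tagged P. falciparum DNA-binding domains expressed in E. coli. Bound protein was picked up with Alexa488 anti-GST antibody and scanned at 488 nm.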
For the sequence “TTTTTTTTTTGTAGTTGTACGAACTAGCTATTTATG [XGTACX_site692]”, the “gcPBM binding intensity (ln)” value was 11.2 ± 0.76.
Take “TAATTACCATATGGTACACACATATATATATGTATA [CACACA_site3487]”: the “gcPBM binding intensity (ln)” value came to 11.2 ± 0.79.
For “TTATTTTTTCAAGAATGTACTTACGAATTGTCGTAT [XGTACX_site1363]” the value was 11.1 ± 0.71; for “ATCAATACACATATATGTACATATAATAATTATCTT [XGTACX_site662]”, 11.3 ± 0.76; for “CAAAAAAACAAACACACACACACACCCATATATATA [CACACA_site3653]”, 9.93 ± 0.23.
As for “TTATAAATTATATATATGACCAATAATTGTGAGCAT [CACACA_negctrl_site725]”, the “gcPBM binding intensity (ln)” value was determined as 10.9 ± 0.53.
On to “TGTTATTAAAACGTGACACACAATATATATATATAT [CACACA_site3539]”, for which the “gcPBM binding intensity (ln)” value came out at 10.2 ± 0.29.
Next, “TTTTTTTTTAAGCAAAGGAAATCAAAATAAAAATAT [CACACA_negctrl_site719]”: 10.1 ± 0.22; “TTTTTTTTTTTTTTTTGTACACATAGTAAAAATTAA [XGTACX_site2410]”: 11.2 ± 1; “TTTTTTTTTTATTCTACACACATATGTTTTTATATG [CACACA_site182]”: 9.98 ± 0.071.
Regarding “TATATATATATATGTTGTACTTTTAATTTAAATGTA [XGTACX_site4239]”, the “gcPBM binding intensity (ln)” value is 11.6 ± 0.94.
Next, “GGATGATTAAGGGGGACACACGTTTATATATTTATA [CACACA_site4342]”: 11.7 ± 0.9; “AAATATATATATATAATACACACTAAAGTAACATAA [CACACA_site2870]”: 9.945 ± 0.049; “TGTCGACATGTAGGTAGTACTATTAAAAATAATGAT [XGTACX_site3849]”: 11.6 ± 1.2.
Next, “ATAGAAGGACATATAACACACATATATTATAAGTAT [CACACA_site5461]”: 10.9 ± 0.64; “ATTCAAAAGGTTTAATGTACGTGATGTTTCACAAAT [XGTACX_site784]”: 11.1 ± 0.79; “CATACTCTACATAGATGTACTCATTTAAAAAAAAAA [XGTACX_site6945]”: 11.3 ± 0.98.
For “ATTTTTTTTTTTTTTTTTTTTTTTTTCTCTCTCACT [CACACA_negctrl_site1046]”, the “gcPBM binding intensity (ln)” value came to 9.73 ± 0.24.
Next, “ATATATTATTATATATGTACTTATTTATAAATGATT [XGTACX_site7597]”: 11.3 ± 0.77; “AAATAGGGAATTTATGCACACAGTTAAGGGGGAAAA [CACACA_site2071]”: 10.8 ± 0.47.
For “AATAAATTAATAAGGTGTACATAAATAATTTATATA [XGTACX_site8278]” the value was 11.5 ± 0.94; for “TAAATATAAACACAAACACACACATATATATATATA [CACACA_site7978]”, 9.93 ± 0.12; for “AAAACGTATCACAAAAGTACAGATAGTTATAATATA [XGTACX_site185]”, 11.4 ± 1.
In the case of “CGAAACCATATGTACACACACATATATAAATATGTA [CACACA_site7082]”, the “gcPBM binding intensity (ln)” value was 11.3 ± 0.88.
Next, “TGATAGCTAGCTATATGTACATATATATATATATAT [XGTACX_site393]”: 11.2 ± 0.73; CTTTCGGTTGGAGAGGTGCGCTTCTCCTTTATAATA: 10 ± 0.33.
Regarding “AAACATCATAAATATACACACATATATATATATATA [CACACA_site620]”, the “gcPBM binding intensity (ln)” value was 10.1 ± 0.32.
“TACACAAAATTTAAATGTACATTAAATATATGATGT [XGTACX_site2140]”: the “gcPBM binding intensity (ln)” value was found to be 11 ± 0.39.
Regarding “ATTTATCTATAATATACACACATATAACAGACATAT [CACACA_site6469]”, the “gcPBM binding intensity (ln)” value turned out to be 10.1 ± 0.14.
For “AATGAAAATAAATTAACACACAATTTTAATATTGTT [CACACA_site1306]” the value was 9.74; for “TTTATATTTCTCTTTAGTACATATTATATTCTTTTA [XGTACX_site1618]”, 10.7 ± 0.42.
Next, “AATTATTTACCTTCTTTGAAAGAACAAATGATACAA [CACACA_negctrl_site1315]”: 10.1 ± 0.23; “ATATATATATATATATGTACTTATAATTCTTCAATT [XGTACX_site5627]”: 11.2 ± 0.87.
Next, “GTATACTTAACATTCACACATATATATATATATAAA [CACACA_site4596]”: 10.2 ± 0.46; “ATATATCAACTCATATTATTTTCTTTTATTATTTAT [CACACA_negctrl_site276]”: 9.69 ± 0.12; “CTAAAACAATAAATCACACATACATAGGATAATATA [CACACA_site4247]”: 9.92 ± 0.014.
As to “ATTTATAATCTGTATAGTACACATATATACATGGTT [XGTACX_site2714]”, the “gcPBM binding intensity (ln)” value was determined as 11.1 ± 0.62.
As for “TATAAAAAATGATAAAGTACTTTATACACACAAATA [XGTACX_site8486]”, the “gcPBM binding intensity (ln)” value stood at 11.2 ± 0.73.
As to “AAAATATACACACATATGTATATAATATTATATGTA [GTGCAC_negctrl_site496]”, the “gcPBM binding intensity (ln)” value was determined as 9.9.
For “TCTTAAATATACAGTTGTACTAAACAAAAAAAAAAA [XGTACX_site2639]” the value was 11.1 ± 0.83.
For “ATTAATTTTCCATTCACACATATATATATATATATA [CACACA_site6065]” the value was 10.1 ± 0.28.
For “ATAGCATATATTTTTTGTACATATGTTATATATATA [XGTACX_site2184]” the value was 10.9 ± 0.52; for “TACAAATATATATGCACACACATATCTGTATATGTG [CACACA_site5663]”, 10.38 ± 0.035.
Take “TATATAAAACCTTATTGTACTATTAGACTATGCTTA [XGTACX_site6026]”: the “gcPBM binding intensity (ln)” value was determined as 10.9 ± 0.61.
For “CAAATATCTATTTAGTGTACTAATATATTCAATAAT [XGTACX_site2345]” the value was 11.3 ± 0.82; for “ACAAAGACAATTTTGTTATATATAAAAAAAAAAAAT [CACACA_negctrl_site253]”, 9.78 ± 0.099; for “AATTCTTTTTATATATTAAATATTATTAATAAGTCA [CACACA_negctrl_site1488]”, 9.735 ± 0.035.
For “ACACATTATAACAAGGTGCAATTTTTATACACATGT [GTGCAC_site9866]” the value was 10.05 ± 0.035.
For “ATGTAGATATATATCTGTACGTATATGTAAATATTA [XGTACX_site1516]” the value was 11.5 ± 0.97; for “AAAAATTCTTGGCGCACACACTTTAAAAGTTAAAAA [CACACA_site6430]”, 10.7 ± 0.54; for “GTATATTTCTTTAAATGTACACATTTTTTTAAAGAG [XGTACX_site1225]”, 11.4 ± 0.98.
As to “AATTGTATAAATGGAATAATGACTATGATTATACAT [GTGCAC_negctrl_site188]”, the “gcPBM binding intensity (ln)” value was determined as 9.97 ± 0.14.
Next, “TATAAAAAATATCCTTTTTTTATACATCAATATATA [TGCATGCA_negctrl_site291]”: 9.68 ± 0.014; “CACTAATAGTGGATTACACACATATAGATGTATATA [CACACA_site7234]”: 10.17 ± 0.042; “GAAAAAAAAAAAAATACACACAAATTGGTATATAAC [CACACA_site6315]”: 9.925 ± 0.035.
For “GCTATAATAAAATTTAAACACACGTAATATAATATA [CACACA_site2592]” the value was 10.1 ± 0.18; for “AAAATTTCATAAAGACGTACTATAAAAATAAAATTA [XGTACX_site4182]”, 11.4 ± 0.98.
As for “AAAAAAAACAGACACACACACAAATATATAAAAATA [CACACA_site1172]”, the “gcPBM binding intensity (ln)” value was found to be 10.1 ± 0.24.
With “TTTTTGAAATAATGAAACAGCAAAAAAACAAAAATA [CACACA_negctrl_site221]”, the “gcPBM binding intensity (ln)” value came out at 10.3 ± 0.24.
“TATTAAAAGAAAATAACACACACAAAAAAAAAAAAA [CACACA_site8661]”: the “gcPBM binding intensity (ln)” value amounted to 9.74 ± 0.24.
Regarding “AAAATAAGCGTGAAACGTACATATTACATTATTATA [XGTACX_site8914]”, the “gcPBM binding intensity (ln)” value was 11.1 ± 0.74.
Take “TCATTCTATCTGTTCACACATACACAAAAAAAAAAA [CACACA_site5141]”: the “gcPBM binding intensity (ln)” value came to 10.4 ± 0.54.
For TATATACATGTGAGAGTGCATATAGACATAAAAAAT the value was 10.3 ± 0.16.
Next, “TTTTAAAATATCAACACACTCATTATTTTCTATATT [CACACA_site4740]”: 9.7 ± 0.099.
As to “AAAATAAAAACAAAATCACACATTCCAGTTTTTTTT [CACACA_site5356]”, the “gcPBM binding intensity (ln)” value is 9.52 ± 0.35.
For “ATATATTTTGTATGTAGTACAATTTTATAATCATAT [XGTACX_site8373]” the value was 11.2 ± 0.78; for TCAATTTGGAACGGTATGCACTAATTTTATATTTTT, 9.975 ± 0.035.
With “TATTACAAATATGGCACACATATATATATATATATT [CACACA_site3268]”, the “gcPBM binding intensity (ln)” value came out at 10.1 ± 0.19.
Next, “AATAATGAATACACATGTACAAAAATTTTTCTTACT [XGTACX_site1962]”: 10.9 ± 0.41; “ATATACAGATAAATGTGTACTTAAATCTATTATATT [XGTACX_site2632]”: 11.4 ± 0.83; “AAGGTCATTTTATATTGTACATGAAATTGTTATGTA [XGTACX_site187]”: 10.9 ± 0.57.
For “AGAAGTAAAAAAATAGCACACACACTAATACCAACA [CACACA_site8354]”, the “gcPBM binding intensity (ln)” value stood at 10.5 ± 0.3.
Next, “ATTTTTATATATATCTGTACTAAAAAAAAAAAAAAA [XGTACX_site5258]”: 11.1 ± 0.98; “TTTAATTATTTATTTTGTACATATATTATATATATA [XGTACX_site5760]”: 10.7 ± 0.4; “AAAAGAAAAATATTCACACATATAAATAATATATAA [CACACA_site4201]”: 9.615 ± 0.035.
Next, “AAACAAAAAAGAAAAACAATGAGATAAAGAAGAGAA [CACACA_negctrl_site804]”: 9.77 ± 0.16.
For “TATTTATATATTTGTTGTACGTATTTATATATTCTT [XGTACX_site3622]” the value was 11.6 ± 0.95; for “TTATATTAATATTATATTTAAAAATAAAATATAAAT [TGCATGCA_negctrl_site79]”, 9.54 ± 0.23; for “TCTTGTTCGCCCTATTGTACAAACATATATTGTGAT [XGTACX_site2884]”, 10.9 ± 0.45.
“TTATTTTGATCTGGTTGTACATATAATATATAGTGG [XGTACX_site357]”: the “gcPBM binding intensity (ln)” value amounted to 11.2 ± 0.76.
Next, ACCATATAAAGTTAGGTGCATTTGTATGTATCTTAC: 9.88 ± 0.099; “TTTTATTTTTGTTGGTCCCTCATTTAAGTTAATAAA [TGCATGCA_negctrl_site465]”: 11.1 ± 0.71.
Next, “TTTTCAATATATATATGCTGAATTTATAATTTGTAT [CACACA_negctrl_site1774]”: 9.52 ± 0.16.
“ATATTGATTTGTGGCACACATATAATATATTCCTAT [CACACA_site3046]”: the “gcPBM binding intensity (ln)” value was 10.2 ± 0.27.
Take “TGAATAATAAAAAATACACACACATATATATATATT [CACACA_site9146]”: the “gcPBM binding intensity (ln)” value came to 9.8 ± 0.11.
For “ATTAATTTGATTTTAATAAGAATATTTGTGGGGAAT [GTGCAC_negctrl_site198]” the value was 9.82 ± 0.085; for “ATTTTTTTTGTTTATTCTTATGTGGTTATTAAATTA [CACACA_negctrl_site1000]”, 10.1 ± 0.17; for “ATTATGAAATATCGTGCACACACGAATAATATAAGA [CACACA_site1294]”, 10.3 ± 0.39.
